Drawing on PubChem BioAssay AID488969 (Vanderbilt High Throughput Screening Facility, 2010), this text covers z-score for 107 molecules.

Over roughly 110,000 compounds, “z-score” has its median near -0.1; the highest 2% begin near 2. The list shows a part of the results. Calls of active or inactive are those of the source.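 The calls were made as follows: active = z-score in the third read window above 3 or below -3; inactive = the rest.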

For the test, the target named is Metabotropic glutamate receptor 8 (Rattus norvegicus) (UniProt P70579). The test is described as follows: rat mGluR8 modulators via GIRK flux, primary screen, cell-based, thallium flux, HTS (AID 488969). The settings on record: HEK293 rat mGluR8, GIRK (G protein-gated inwardly rectifying potassium channel) thallium flux, FluoZin2; at 10 µM; stronger effect = higher value; submaximal glutamate (EC20) added with thallium.
Chain of UniProt P70579 (P70579 whole entry, looked up): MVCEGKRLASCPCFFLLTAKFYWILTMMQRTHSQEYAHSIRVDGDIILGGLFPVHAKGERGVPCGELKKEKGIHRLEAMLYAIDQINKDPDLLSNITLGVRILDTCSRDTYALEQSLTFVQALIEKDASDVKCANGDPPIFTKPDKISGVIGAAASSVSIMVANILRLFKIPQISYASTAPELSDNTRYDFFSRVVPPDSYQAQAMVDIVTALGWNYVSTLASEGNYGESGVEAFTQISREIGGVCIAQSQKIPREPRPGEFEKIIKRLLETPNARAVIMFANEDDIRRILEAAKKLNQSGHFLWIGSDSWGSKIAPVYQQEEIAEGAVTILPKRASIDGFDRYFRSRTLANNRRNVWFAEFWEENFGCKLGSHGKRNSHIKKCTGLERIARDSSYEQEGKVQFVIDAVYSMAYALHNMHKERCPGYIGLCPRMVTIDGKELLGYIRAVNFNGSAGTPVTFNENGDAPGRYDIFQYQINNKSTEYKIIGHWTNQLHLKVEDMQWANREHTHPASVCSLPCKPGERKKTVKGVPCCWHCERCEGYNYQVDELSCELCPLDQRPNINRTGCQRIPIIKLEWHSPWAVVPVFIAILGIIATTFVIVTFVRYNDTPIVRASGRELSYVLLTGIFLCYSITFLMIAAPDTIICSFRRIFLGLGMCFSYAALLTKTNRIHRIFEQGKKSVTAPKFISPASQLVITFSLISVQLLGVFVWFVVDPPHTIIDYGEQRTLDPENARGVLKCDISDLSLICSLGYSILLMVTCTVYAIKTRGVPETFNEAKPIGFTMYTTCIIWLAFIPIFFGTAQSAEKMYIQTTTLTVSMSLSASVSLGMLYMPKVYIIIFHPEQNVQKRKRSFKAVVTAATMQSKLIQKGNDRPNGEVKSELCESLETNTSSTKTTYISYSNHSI
Molecule `COc1ccc(NC(=O)c2cccnc2C(=O)O)c(OC)c1` yielded a z-score of 0.0809. The same measure for `COc1cc(C(c2sc3nc(C)nn3c2O)N2CCOCC2)cc(OC)c1OC` (configuration not stated): 0.504; for `COc1ccc(Cn2nnnc2C(c2cccs2)N2CCN(c3ccccc3)CC2)cc1` (configuration not stated): -0.248; for `Cc1ccc(NC(=O)c2c(C(F)(F)F)nn(C)c2Cl)cc1C`: -0.0324. The same measure for `Cn1c(Cl)nc2ccccc21`: 0.0039. As for `O=C(Nc1ccc(S(=O)(=O)Nc2ncccn2)cc1)c1ccco1`, the z-score is -0.0592.

`COc1ccc(COC(=O)N/N=C(\C)CC(=O)Nc2ccc(Cl)cc2)cc1` showed a z-score of -0.318. As for `CC12CCC(=O)N1c1ccccc1C(=O)N2c1ccccc1` (configuration not stated), the figure is -0.19.

For `CCNC(=O)CC1SC(=Nc2ccc(C)cc2)NC1=O` (configuration not stated), the z-score was -0.465. As for `O=S(=O)(c1ccc(Br)s1)N1CCN(c2ccccc2)CC1`, the figure is -0.407.

In turn, `O=C(Nc1nnc(C2CCCCC2)s1)c1ccc(Br)s1` came in with a z-score of -0.204.

Regarding `O=[N+]([O-])c1cc2c(c(CSc3nnnn3-c3ccc(O)cc3)c1)OCOC2`, the z-score is -0.166.

`O=C(c1ccccc1)[C@@H]1[C@@H](C(=O)c2ccc(F)cc2)[C@@]2(C(=O)Nc3ccccc32)[C@H]2c3ccccc3C=CN12` registered a z-score of -0.0419. The same measure for `Cc1ccc(S(=O)(=O)n2nc(OC(=O)C3CCCCC3)cc2N)cc1`: -1.51; for `CCOC(=O)/C(=N\Nc1cccc(Cl)c1)Sc1nnc(-c2ccc(OC)cc2)n1C`: -0.247. The same measure for `COc1ccc(CNCC(O)(c2ccc(Cl)cc2)c2ccc(Cl)cc2)cc1`: -0.78; for `CNC(=O)CSc1nc2c(c(=O)n(C)c(=O)n2C)n1Cc1ccc(C)cc1`: 2.07. Take `COC(=O)CC(N)c1ccc(OC)c2ccccc12` (configuration not stated): the z-score is 0.166. The same measure for `CCN(CC)CCOCCOc1cc(C)c(Cl)c(C)c1`: 0.603; for `CC(C)(CO)NCC(=O)Nc1cc(C(F)(F)F)cc(NC(=O)CNC(C)(C)CO)c1Cl`: 0.023. As for `CCNCC(=O)N1c2ccccc2CCc2ccc(NC(C)=O)cc21`, the figure is -0.541; as for `Cc1cc(C)n2c(SCC(=O)Nc3ccc(Cl)cn3)nnc2n1`, -0.145; as for `CN(C)S(=O)(=O)c1cccc(NC(=O)Cc2ccc(Cl)cc2)c1`, active: 4.58. The same measure for `C(=C\c1cc(/C=C/c2ccccc2)ncn1)/c1ccccc1`: -0.205; for `CCOc1ccc(C2CC(c3ccccc3C)n3ncnc3N2)cc1` (configuration not stated): -0.364; for `Cc1nc2ccc(S(=O)(=O)NC(C(=O)NCc3ccc4c(c3)OCO4)C(C)C)cc2s1` (configuration not stated): -0.0773. For `O=C(NC(=O)N1CCN(c2ccccc2)CC1)c1ccc(Cl)cc1`, the z-score turned out to be 0.734. `COc1cc(/C=c2/sc3nc(-c4ccccc4)c(-c4ccccc4)n3c2=O)cc(OC)c1OC`: the z-score was -0.244. Molecule `O=S(=O)(Nc1ccc2c(c1)OCCO2)c1cccc2nsnc12` had a z-score of -0.16. As for `Cc1cccc(CSc2ccc(-c3cccs3)nn2)c1`, the figure is 0.0583; as for `CCOC(=O)CN(Cc1sccc1C)C(=O)Nc1ccc(OC)cc1OC`, 1.28. The same measure for `CN(CCNC(=O)c1ccc(N2CCCC2=O)cc1)CCc1ccccc1`: -0.267; for `CCOc1ccc(Cn2c3ccc(OC)cc3c3nc4ccccc4nc32)cc1`: -0.164; for `Cc1cc(C(=O)OCC(=O)NCCCN2CCCC2=O)c2ccccc2n1`: 0.0328.

As for `CCOCCn1c(=NC(=O)c2cc(Cl)sc2Cl)sc2cc(S(N)(=O)=O)ccc21`, the z-score was -0.0217. The same measure for `C=CCNc1ncnc2c1[nH]c1ccc(C)cc12`: -0.185; for `COc1cc2ccccc2cc1C(=O)Nc1ccc(S(=O)(=O)Nc2cc(C)on2)cc1`: -0.249.

`C=CCS/C(=N\n1cnc2ccccc2c1=O)N(CC)CC` registered a z-score of 0.506.

With `CCOCCCNCC(=O)N1CCN(S(=O)(=O)c2ccc(C)cc2)CC1`, the z-score is 0.811. Turning to `COc1ccc(NS(=O)(=O)c2ccc(S(=O)(=O)N3CCCC3)cc2)cc1Cl`, the z-score is -0.164. As for `Cc1cnn(CCC(=O)NNC(=S)Nc2ccccc2)c1`, the figure is -0.0444. The same measure for `CN(C)c1ccc(/C=N/c2cc(-c3ccccc3)nn2-c2ccccc2)cc1`: -0.221; for `CCOc1ccc(NC(N)=O)cc1OCC`: -0.0733; for `Cc1onc(-c2c(Cl)cccc2Cl)c1C(=O)Nc1c(C)n(C)n(-c2ccccc2)c1=O`: 0.635.

As to `C/C(=N\NC(=S)NC(C)C)c1ccc(Cl)s1`, the z-score was active: 5.46.

Consider `O=C1CCCc2[nH]nc(-c3cccnc3)c21`, for which the z-score is -0.319. On to `CCn1nc(C)c(NC(=O)CCSc2nc(-c3ccco3)cc(C(F)(F)F)n2)c1C`, for which the z-score was -0.494. As for `O=C(NCC1CCCO1)C1CC1(c1ccccc1)c1ccccc1` (configuration not stated), the figure is 1.76; as for `Cc1ccc(N2CCN(CC(=O)Nc3c(C(=O)C4CC4)oc4ccccc34)CC2)cc1`, -0.413; as for `COCc1nnc(NC(=O)CCSc2ccccc2)s1`, -0.0854. As for `CCn1c(=S)sc2c(=O)n(-c3ccccc3)c(SC)nc21`, the figure is -0.531; as for `N#Cc1c(NC(=S)NC(=O)Cc2cccs2)sc2c1CCCCC2`, 0.576. The same measure for `CCCn1c(-c2nonc2N)nc2ccccc21`: -0.0596. Molecule `O=C(CSc1cn(CCNC(=O)c2cccs2)c2ccccc12)NC1CCCCC1` came in with a z-score of -0.0746. The same measure for `CCCC(=O)Nc1ccc2nc(SCC(=O)Nc3ccc(N4CCOCC4)c(Cl)c3)sc2c1`: 0.487; for `COCCCNc1oc(-c2ccccc2F)nc1C#N`: -0.0333. The same measure for `Cc1ccc(S(=O)(=O)N(CCO)c2cc3c(s2)CCCC3)cc1`: -0.0191.

`c1cc2nncn2nc1N1CCCC1` had a z-score of -0.181. `O=C(CC1(O)C(=O)N(Cc2ccc3c(c2)OCO3)c2ccccc21)c1ccccc1` (configuration not stated) had a z-score of -0.394.

On to `O=C(NC1CS(=O)(=O)CC1NCc1ccccc1)c1ccccc1` (configuration not stated), for which the z-score came to 0.00939. As for `CC(=O)Nc1ccc(S(=O)(=O)NCc2ccc(C(=O)NC(C)c3ccccc3)cc2)cc1` (configuration not stated), the figure is -0.32; as for `COc1ccccc1NC(=O)C1CCCCN1S(=O)(=O)c1ccc(F)cc1` (configuration not stated), -0.247. As for `Cn1c(=O)oc2cc(S(=O)(=O)NCCC(=O)N3CCc4ccccc4C3)ccc21`, the figure is -0.0159; as for `CCOC(=O)C1(S(=O)(=O)c2ccc(Cl)cc2)CCN(Cc2ccc(Cl)cc2)CC1`, 0.334; as for `Cc1cc(C)cc(Oc2cc(NC(=O)c3cn(C)nc3C)cc([N+](=O)[O-])c2)c1`, -0.139.

Take `CCc1nnc(NC(=O)CCN(c2ccc(C)cc2)S(=O)(=O)c2ccccc2)s1`: the z-score is -1.49. As for `CS(=O)(=O)N(CC(O)CON=C1c2ccccc2-c2ccccc21)c1ccc(F)cc1` (configuration not stated), the figure is 0.31; as for `CC1(C)Cc2c(sc3[nH]c(=S)n(Cc4ccco4)c(=O)c23)CO1`, active: 8.31.

Take `CC(=O)Nc1ccc(S(=O)(=O)Nc2nnc(C(C)(C)C)s2)cc1`: the z-score worked out at 0.307. `O=C(/C=C/c1ccc2c(c1)OCO2)Nc1cc(S(=O)(=O)N2CCOCC2)ccc1N1CCOCC1`: the z-score is -0.667. `CCCCn1nc(C(=O)Oc2ccc3c(C)cc(=O)oc3c2)c2ccccc2c1=O`: the z-score was -1.21. The same measure for `Cc1ccc(Nc2nc3ccccc3o2)cc1F`: 0.0121. As for `CC1Cc2ccccc2N1C(=O)c1cc2sccc2n1Cc1ccc(F)cc1` (configuration not stated), the figure is -0.392. The same measure for `Cc1ccc2nc(SCC(=O)NCc3ccco3)c(C#N)cc2c1`: 0.0682; for `C=CCNC(=O)c1ccc2nc(-c3ccccc3)c(-c3ccccc3)nc2c1`: -0.148. The molecule `CCn1c(SCC(=O)N2CCOCC2)nc2c(c1=O)SC(C)C2` (configuration not stated) registered a z-score of -1.09. Molecule `Cc1ccc(-n2nc(C)cc2Nc2ncc(Cl)cc2Cl)cc1` had a z-score of 0.588. As for `CCOc1ccc(S(=O)(=O)NCCC(=O)OC(C)C(=O)N2CCc3ccccc32)cc1` (configuration not stated), the figure is -0.474; as for `O=C(Nc1nc(-c2ccc(-c3ccccc3)cc2)cs1)C1CCCO1` (configuration not stated), 0.31; as for `CC(C)(C)NC(=O)CSc1ncnc2c1nnn2Cc1ccccc1Cl`, 0.479. The same measure for `CCOC(=O)c1ccc(N2C(=O)CC(NC3CCN(C(=O)c4cccc(Cl)c4)CC3)C2=O)cc1` (configuration not stated): -0.178. As for `CCCS(=O)(=O)NCCc1cc2c(OC)ccc(OC)c2[nH]c1=O`, the figure is 0.0641. The molecule `CC(=O)Oc1ccccc1/C=C1\CCOC1=O` showed a z-score of -0.104.

With `O=C(/C=C/c1cccc2ccccc12)NCCC1=CCCCC1`, the z-score is -0.101. `O=C(Nc1cc2ccccc2oc1=O)C1CCCCC1` returned a z-score of -0.251.

Take `Cc1ccc(C(=O)C2=C(O)C(=O)N(Cc3ccccc3)C2c2cccnc2)o1` (configuration not stated): the z-score was -0.709. As for `Cc1cc(C(=O)NCCCn2ccnc2)sc1-c1ccccc1`, the figure is -0.0356; as for `O=c1cc(NS(=O)(=O)c2ccccc2)nc(SCc2ccc(Cl)cc2)[nH]1`, 0.485; as for `CN(C)c1ccc(/C=C/C=C2/SC(=S)N(c3ccccc3)C2=O)cc1`, 0.46. The same measure for `Cc1ccc(OC(=O)CCC(=O)OCCCC(F)(F)C(F)(F)F)cc1`: -0.304. As for `O=C(NC1CCCC1)C(c1c[nH]c2ccccc12)N(C(=O)Cn1nnc(-c2ccc(Cl)cc2)n1)c1ccccc1` (configuration not stated), the figure is -0.0186. For the molecule `CC(C)C[C@H](NC(=O)OC(C)(C)C)C(=O)N/N=C/C1=Cc2ccccc2OC1C` (some centres not stated), the z-score was -0.0272. As for `CN1C(=O)C(O)(C2COC(C)(C)CC2=O)c2cc(Br)ccc21` (configuration not stated), the figure is 0.58. As for `O=C(N/C(=C/c1cccc([N+](=O)[O-])c1)C(=O)N1CCCCC1)c1cccs1`, the figure is -0.275. As for `CCc1cccc(C)c1NC(=O)c1ccoc1C`, the figure is 0.147; as for `O=C(Cn1[nH]c(=O)c2ccccc2c1=O)OCC(=O)N1CCCc2ccccc21`, -0.259; as for `Cc1cccc(-n2c(-c3csc(C(C)C)c3)n[nH]c2=S)c1`, 2.87. For the molecule `Cc1ccc(NC(=O)CSc2nnc(-c3cccnc3)n2-c2ccc(C)cc2)cc1`, the z-score was -0.339. As for `COc1cc(C(C(=O)NC2CCCCC2)N(C(=O)Cc2c[nH]c3ccccc23)c2ccccc2C)cc(OC)c1OC` (configuration not stated), the figure is -0.0948; as for `O=C(COc1ccccc1)NC(NC(=S)Nc1ccccc1C(=O)O)C(Cl)(Cl)Cl` (configuration not stated), -0.0437. The same measure for `c1cncc(-c2nc3ccccn3c2Nc2ccc3c(c2)OCCO3)c1`: -0.0135; for `N/C(=N\OC(=O)C12CC3CC(CC(C3)C1)C2)c1ccccn1`: 0.0978; for `CCOc1cccc(CNc2ccc(O)cc2)c1OCc1ccc(Cl)cc1`: 0.00371. The same measure for `CCOC(=O)Cc1c(C)c2c(C)nn(-c3ccccc3)c2oc1=O`: -0.884; for `O=C(c1cc2n(n1)C(C(F)(F)F)CC(c1ccco1)N2)N1CCc2ccccc2C1` (configuration not stated): -0.156. For the molecule `CCOC(=O)c1c(C)[nH]c(C(=O)COC(=O)C(C)N2C(=O)C3CCCCC3C2=O)c1C` (configuration not stated), the z-score was -0.178. As for `Cn1c(=O)n(CC(=O)N2CCOCC2)c2ccccc21`, the figure is 1.21.
